Results taken from ChEMBL document CHEMBL4888484, “Replenishing the malaria drug discovery pipeline: Screening and hit evaluation of the MMV Hit Generation Library 1 (HGL1) against asexual blood stage Plasmodium falciparum ,using a nano luciferase reporter read-out” (2022).
Screen size: about 150,000 compounds; about 540 (0.36%) showed an effect of 50% or more. The list shows a part of the results.

These compounds were tested on Plasmodium falciparum (assay: Primary screen in NF54 nanoGlo assay, in single point, at 2uM, 72h; a lower Z score goes with more inhibition). Settings: timepoint 72 hour.
Format: functional, Erythrocyte

SMILES | % Inhibition [%] | Z score
COc1ccccc1CCC(=O)N(Cc1ccc(OC)c(OC(C)C)c1)C1CCCC1 | -14 | 1.83
Cc1noc(CC(NC(=O)C(O)c2ccccc2)c2ccccc2)n1 (stereo not drawn) | -1 | 0.16
CCCOCC(=O)N1CCC(Cc2ncc[nH]2)CC1 | -14 | 1.37
C[C@H](Nc1ccc2c(c1)OCCCO2)C(=O)N1CCCC1 | -1 | 0.16
Cc1noc(C2CCN(C(=O)c3c(C)ccn3C)CC2)n1 | 2 | -0.25
O=C(N[C@H]1CCN(Cc2ccccn2)C[C@@H]1O)c1ccc(Cl)s1 | -9 | 1.71
O=C(Cc1ccc(-c2ccccc2)cc1)N1CC(N2C(=O)CCC2=O)C1 | -4 | 0.49
c1ccc2oc(CNc3cncc(-n4cccn4)n3)cc2c1 | 2 | -0.26
COCCc1ccc2oc(NCc3cnn(CC(C)C)c3)nc2c1 | -6 | 0.78
Cc1c(C)n(C[C@H](O)Cn2c(C(F)(F)F)nc3ccccc32)c2c(Cl)cccc12 | 38 | -4.31
CC(CC(C)C(=O)N1CCOCCN(C(=O)C(C)CC(C)C(=O)O)CCOCC1)C(=O)O (stereo not drawn) | -8 | 1.02
CN1CCCCCCN(C(=O)c2ccoc2)[C@H]2CCC[C@H]2C1=O | -7 | 0.96
CC1(C)[C@H]2CC=C(CN3CCC(=O)N(CCS(=O)(=O)c4ccccc4)CC3)[C@@H]1C2 | 1 | -0.07
Cc1ccc(N2CCC[C@@]3(CCC(=O)N(CCc4c[nH]cn4)C3)C2)nn1 | -11 | 1.98
O=C(NCc1noc(-c2ccco2)n1)c1ccc(Br)cc1 | 7 | -0.92
Cc1ccc(N(C(=O)c2ccccc2)[C@H]2CCS(=O)(=O)C2)cc1C | 4 | -0.46
CCCCOc1ccccc1C(=O)N1C[C@@H]2NC(=O)c3ncccc3OCCn3cc(nn3)CO[C@H]2C1 | -4 | 0.46
C1CCCC(NC2=NCCNC23CCOCC3)CC1 | -11 | 1.41
COc1cc2c(cc1OC)/C(=N\c1ccc(C(C)=O)cc1)NC1(CCCC1)C2 | -8 | 1.2
COC[C@H]1NC(=O)CC[C@H]1C(=O)Nc1ccc(C)cc1 | -22 | 2.57
O=C1CC[C@H](C(=O)N2CCc3c(Br)cccc3C2)CN1 | -5 | 0.65

SMILES | % Inhibition [%] | Z score
O=C(c1cccc2[nH]c(C(F)F)nc12)N(Cc1ccncc1)C1CC1 | -5 | 1.01
Cc1cc2c(=O)n(CC(=O)Nc3ccc(F)cc3)c3cccnc3n2n1 | -3 | 0.47
CCOC(=O)N1CCN(C(=O)c2c(COC)n(CCc3ccccc3Cl)c(C)cc2=O)CC1 | 5 | -0.75
O=C(Cc1ccc(NS(=O)(=O)Cc2ccccc2Cl)cc1)N1CCOCC1 | -1 | 0.23
NS(=O)(=O)C[C@H]1CCN(C(=O)c2ccc3c(c2)OCCO3)C1 | -12 | 2.27
CS(=O)(=O)N1C[C@H]2CC[C@@H](C1)N(C/C=C/c1ccc(F)cc1)C2 | -20 | 1.88
O=C(NCc1cc(F)cc(Br)c1)NC1(CCO)CCC1 | -3 | 0.33
Cc1[nH]ncc1-c1nnc(NC(=O)C2CC=CC2)s1 | -50 | 5.85
Cc1n[nH]c(C)c1CCC(=O)N1CCN([C@@H](c2ccccc2)c2ccc(Cl)cc2)CC1 | -16 | 2
Cn1ccnc1CNC(=O)c1coc(COc2cccc(C(F)(F)F)c2)n1 | -6 | 0.94
Cc1ccc(CN(C(=O)c2cccc(OCC(N)=O)c2)C2CCCC2)s1 | -11 | 1.47
O=C(CCN1CCCC1=O)Nc1ccc(COC2CCCC2)cc1 | -17 | 3.33
CC(C)CN(CC(=O)N(CCc1c[nH]c2ccccc12)Cc1ccccc1)C(=O)Nc1ccc(C#N)cc1 | 1 | -0.1
CC(C)n1cc(-c2cc(C(=O)N3CCCC3)c3ccc(Cl)cc3n2)cn1 | 1 | -0.12
O=C(Cn1c(-c2cnccn2)nc2ccccc21)Nc1ccc(F)c(Cl)c1 | 14 | -1.87
CN1CCC[C@@H]1CCNC(=O)c1ccc2nc(-c3ccc(F)cc3)cn2c1 | 8 | -1.12
Cc1cc(CN2CCOc3cc(F)c(Br)cc32)no1 | -7 | 1.1
CC1CC(C(=O)N(C)CCN(C)C(=O)C2CC(C)C2)C1 (stereo not drawn) | -7 | 0.91
O=C(NCc1ccc2c(c1)CCCN2)c1ocnc1C1CC1 | -5 | 0.56
COc1cc(NC(=O)N2C[C@@H]3C[C@H]2C[C@@H]3NS(=O)(=O)c2ccccc2)cc(OC)c1 | 0 | 0.02
Oc1nnc(/C=C/c2ccc(F)cc2)o1 | -4 | 0.6

SMILES | % Inhibition [%] | Z score
COc1ccccc1CNCC1(S(=O)(=O)NC(C)(C)C)CC1 | -3 | 0.49
O=C(NC[C@H]1CCC[C@@H](CO)C1)c1cccc(C(F)F)c1F | -12 | 1.18
Cc1nnsc1C(=O)N[C@@H](Cn1cncn1)C(C)C | 1 | -0.26
Cc1cc(C)c(C(=O)N2C[C@H](F)C[C@H]2C(N)=O)o1 | 1 | -0.13
CCC[C@H](C)CC(=O)Nc1c(S(C)(=O)=O)cnc2cc(C)nn12 | -5 | 1.06
CN(CCCNc1nccnc1C#N)CC(F)(F)F | -3 | 0.52
CCN(CC)[C@H](CNC(=O)C1=NN(C)C(=O)CC1)Cc1ccccc1 | 38 | -5.12
CC(C)NC(=O)[C@@H]1COC2(CCN(C(=O)CC(C)(C)C)CC2)N1C(=O)c1ccccc1 | -1 | 0.1
Cc1ccccc1OCCCC(=O)Nc1c(C)n(C)n(-c2ccccc2)c1=O | 0 | -0.02
Cc1cc(Cl)ccc1NC(=O)c1cn(-c2cc(-c3noc(C4CC4)n3)ccc2C)nc1C | 0 | 0.01
Cc1ccc(CNC(=O)N2CCC(Cc3nncn3C)CC2)cc1 | -15 | 1.72
CC(C)n1ncnc1CNC1(Cc2ccc(F)cc2)CCOCC1 | -5 | 0.76
CN(C(=O)CN1C(=O)COc2ccc(Cl)cc21)c1nccs1 | -3 | 0.47
CCn1c(=O)sc2cc(S(=O)(=O)N3CCC(C(=O)N[C@H]4CCCc5ccccc54)CC3)ccc21 | -21 | 2.48
O=C(COCc1ccccc1)N1CCC2(CC1)c1ccccc1C[C@@H]2O | -7 | 0.96
COc1nc(C)cc(N2CCC(O)(c3nccn3C)CC2)n1 | -17 | 3.24
Cc1ccc(Cn2cnc3c2c(=O)n(C2CC2)c(=O)n3-c2ccc(C)cc2)cc1 | 8 | -1.04
CC[C@H](OC)C(=O)NCC1(N2CCCC2)CCCCC1 | -11 | 2.09
CC[C@H](O)CCCNC(=O)CCCC1CCCCC1 | -7 | 1.06
CCn1c(=O)c2ccn(CC(=O)NCCCN3CCOCC3)c2n(CC)c1=O | -15 | 1.47
COCc1nnc2n1CCC1(CC2)CCN(C(=O)NCc2cccc(F)c2)CC1 | -15 | 1.44

SMILES | % Inhibition [%] | Z score
CC(C)C(NC(=O)N(C)CC1CCCC1O)c1ccncc1 (stereo not drawn) | -10 | 1.32
Cc1nc2n(n1)C[C@@H](NC1CC(c3ccc(F)cc3)C1)CC2 (stereo partly drawn) | -7 | 1.11
O=C(O)c1cccc2c(-c3cc(-c4ccccc4)n(-c4ccccc4)n3)ccc(C(=O)O)c12 | 32 | -4.07
Cc1ccc2c(c1)C(NC(=O)NC(C)Cn1cncn1)C(C)C2 (stereo not drawn) | -6 | 0.7
O=C(CNc1ccccc1Oc1ncc(Cl)cc1Cl)Nc1ccc(F)cc1Cl | -2 | 0.28
CC(C)n1ncnc1CNc1ccc(Br)c(CO)c1 | -12 | 1.2
CNC(=O)C(C#N)C(=O)CC(C)C1CCCCC1 (stereo not drawn) | -18 | 2.27
C[C@H]1CCCN(C(=O)NCC(=O)N2CCc3ccccc3C2)C1 | -4 | 0.68
Cc1cccc([C@H]2C[C@@H](c3ccccc3Cl)Nc3ncnn32)c1 | -15 | 2.06
COC(C)c1noc(CN(C)C(C)c2nnc(C)s2)n1 (stereo not drawn) | -3 | 0.62
O=C(NCC1(c2ccsc2)CCOCC1)[C@H]1CCOC1 | -13 | 1.92
O=C1[C@H]2[C@H](Cc3ccc(O)cc3)N[C@@]3(C(=O)Nc4ccc(Br)cc43)[C@H]2C(=O)N1CC1CCCO1 (stereo partly drawn) | 16 | -1.98
CC(C)NC(=O)C(C#N)C(=O)C1COc2ccc(Br)cc21 (stereo not drawn) | -12 | 1.54
CC(=O)Nc1[nH]nc(-c2ccc(C)cc2)c1C | -5 | 0.73
CCC(CNCC1(O)CCOC1C)c1ccccc1 (stereo not drawn) | -7 | 1.12
CCC(CC)[C@@H](O)CNC(=O)NC1CCC1 | -11 | 1.74
CCc1ccnc(NC2CCN(C(C)=O)CC2)c1 | -9 | 1.2
Cc1ccc(Cc2nc(CN(C(=O)OC(C)(C)C)C3CC3)no2)cn1 | 1 | -0.18
c1cnc(N2CCC(c3nnc(NCc4cccs4)o3)CC2)nc1 | -8 | 1.15
O=C(N[C@H]1CCOC12CCCC2)c1cc(F)cc2ccncc12 | -7 | 1.29
Cn1cc(NCc2ccc3c(c2)OCO3)c(C(=O)Nc2cccc(Cl)c2)n1 | 4 | -0.55
